Results reported in patent US9150632B2 (Indiana University Research and Technology Corporation, priority 2009, dated 2015).
Read-outs that look alike come from different tables or passages of the source. For some assays here: At least one peptide structure holds a part that was inferred or is arguable (an end, a ring closure or a residue). For some assays here: For at least one compound, name, drawing or mass did not settle the structure. No end group written: not given here.

Experiments:
GLP-1 receptor = GLP-1 receptor (Homo sapiens, UniProt P43220)
GLP-1 receptor, sequence (P43220 24-463, species assumed): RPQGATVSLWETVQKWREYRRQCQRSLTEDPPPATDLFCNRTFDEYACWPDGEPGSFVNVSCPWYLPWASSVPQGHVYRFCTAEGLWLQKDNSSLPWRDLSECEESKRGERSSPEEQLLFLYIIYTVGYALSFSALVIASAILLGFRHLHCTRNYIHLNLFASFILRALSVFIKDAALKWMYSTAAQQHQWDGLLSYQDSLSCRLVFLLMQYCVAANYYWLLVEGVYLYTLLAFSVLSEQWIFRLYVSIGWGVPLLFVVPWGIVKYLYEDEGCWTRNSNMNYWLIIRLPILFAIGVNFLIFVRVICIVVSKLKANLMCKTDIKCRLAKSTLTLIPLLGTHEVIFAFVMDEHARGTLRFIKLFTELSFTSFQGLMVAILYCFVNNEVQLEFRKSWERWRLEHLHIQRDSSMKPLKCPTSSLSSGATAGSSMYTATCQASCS

glucagon receptor = target: T1, glucagon receptor (Homo sapiens, UniProt P47871); experiment: Functional assay-cAMP synthesis, luciferase reporter in HEK293 cells, glucagon receptor; type: cell-based; design: % activity: concentration or dose not given beside the values; conditions: for % activity: Table 26, glucagon receptor
T1 construct: expressed in transfected cells; host or cells: HEK293
T1 sequence (P47871 26-477): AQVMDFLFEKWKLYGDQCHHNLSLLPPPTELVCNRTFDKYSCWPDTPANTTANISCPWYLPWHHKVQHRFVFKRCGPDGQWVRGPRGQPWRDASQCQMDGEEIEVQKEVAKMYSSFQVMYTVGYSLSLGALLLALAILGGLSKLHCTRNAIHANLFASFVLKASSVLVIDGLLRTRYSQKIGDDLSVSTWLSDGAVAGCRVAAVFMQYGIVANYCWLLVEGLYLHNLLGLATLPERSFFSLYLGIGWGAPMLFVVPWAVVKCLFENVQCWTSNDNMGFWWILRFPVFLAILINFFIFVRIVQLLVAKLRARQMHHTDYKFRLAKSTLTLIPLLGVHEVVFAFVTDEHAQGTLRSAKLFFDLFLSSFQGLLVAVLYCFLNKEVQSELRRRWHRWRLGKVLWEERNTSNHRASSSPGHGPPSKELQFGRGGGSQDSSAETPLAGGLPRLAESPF

[1] = Body weight, body composition and food intake in diet-induced obesity (DIO) mice; type: in vivo; conditions: DIO mice, s.c. daily for seven days, 30 or 100 nmol/kg
Description: […] 6 mice per group with initial average body weight of 44 g were tested. Body weight, body composition, food intake, and blood glucose levels were determined periodically.
Body weight was measured before injection and at 1, 3, 5, and 7 days post-injection.
Changes in body weight of and food intake by the mice were measured 0, 1, 3, 5, 7, 8, 10, 12, and 14 days after injection. Blood glucose levels of the mice were monitored throughout the 14 days. Glucose tolerance tests were performed by injecting a 25% glucose in saline solution 1 hour or 24 hours after administration of the acylated or pegylated peptide and measuring blood glucose levels at −60, 0, 15, 30, 60, or 120 min after the glucose injection.
The acylated glucagon analogs were as follows:
C57BI/6 mice were obtained from Jackson Laboratories and fed a diabetogenic diet from Research Diets, a high sucrose diet with 58% kcal from fat. Mice were single or group-housed on a 12:12-h light-dark cycle at 22° C. with free access to food and water. All studies were approved by and performed according to the guidelines of the Institutional Animal Care and Use Committee of the University of Cincinnati.
Whole body composition (fat and lean mass) was measured using NMR technology (EchoMRI, Houston, Tex.).
The peptides were administered daily for two weeks to 11 groups of 8 C57Bl/6 mice by subcutaneous injection at a dose of 10 or 30 nmol/kg. […]

[2] = Blood glucose and glucose tolerance test in DIO mice; type: in vivo; conditions: C57Bl/6 mice on diabetogenic diet, s.c. daily
[3] = Circular dichroism measurements (percent helicity)

CSCC[C@H](NC(=O)[C@H](CC(C)C)NC(=O)[C@H](Cc1c[nH]c2ccccc12)NC(=O)[C@H](CCC(N)=O)NC(=O)[C@@H](NC(=O)[C@H](Cc1ccccc1)NC(=O)[C@H](CC(=O)O)NC(=O)[C@H](CCC(N)=O)NC(=O)[C@H](C)NC(=O)[C@H](CCCNC(=N)N)NC(=O)[C@H](CCCNC(=N)N)NC(=O)[C@H](CCC(=O)O)NC(=O)[C@H](CCC(=O)O)NC(=O)[C@H](CC(C)C)NC(=O)[C@H](Cc1ccc(O)cc1)NC(=O)[C@H](CCCCN)NC(=O)[C@H](CO)NC(=O)[C@H](Cc1ccc(O)cc1)NC(=O)[C@H](CC(=O)O)NC(=O)[C@H](CO)NC(=O)[C@@H](NC(=O)[C@H](Cc1ccccc1)NC(=O)[C@@H](NC(=O)CNC(=O)[C@H](CCC(N)=O)NC(=O)[C@H](CO)NC(=O)[C@@H](N)Cc1c[nH]cn1)[C@@H](C)O)[C@@H](C)O)C(C)C)C(=O)N[C@@H](CC(N)=O)C(=O)N[C@H](C(N)=O)[C@@H](C)O [E15, E16 Gluc-NH2]
Percent Potency Relative to Native Ligand GLP-1Rec (GLP-1 receptor; Table 5): 9.2%

CSCC[C@H](NC(=O)[C@H](CC(C)C)NC(=O)[C@H](Cc1c[nH]c2ccccc12)NC(=O)[C@H](CCC(N)=O)NC(=O)[C@@H](NC(=O)[C@H](Cc1ccccc1)NC(=O)[C@H](CC(=O)O)NC(=O)[C@@H]1CCCCNC(=O)CC[C@H](NC(=O)[C@H](CC(=O)O)NC(=O)[C@H](CC(C)C)NC(=O)[C@H](Cc2ccc(O)cc2)NC(=O)[C@H](CCCCN)NC(=O)[C@H](CO)NC(=O)[C@H](Cc2ccc(O)cc2)NC(=O)[C@H](CC(=O)O)NC(=O)[C@H](CO)NC(=O)[C@@H](NC(=O)[C@H](Cc2ccccc2)NC(=O)[C@@H](NC(=O)CNC(=O)[C@H](CCC(N)=O)NC(=O)[C@H](CO)NC(=O)[C@@H](N)Cc2c[nH]cn2)[C@@H](C)O)[C@@H](C)O)C(=O)N[C@@H](CCCNC(=N)N)C(=O)N[C@@H](CCCNC(=N)N)C(=O)N[C@@H](C)C(=O)N1)C(C)C)C(=O)N[C@@H](CC(N)=O)C(=O)N[C@H](C(N)=O)[C@@H](C)O [E16K20 Gluc-NH2 Lac]
Percent Potency Relative to Native Ligand GRec (glucagon receptor; Table 9): 180.8% | Percent Potency Relative to Native Ligand GLP-1Rec (GLP-1 receptor; Table 9): 63.0%

CCCCCCCCCCCCCCCC(=O)N[C@@H](CCC(=O)NCCCC[C@H](NC(=O)[C@H](C)NC(=O)[C@H](C)NC(=O)[C@H](CCC(N)=O)NC(=O)CNC(=O)[C@H](CCC(=O)O)NC(=O)[C@H](CC(C)C)NC(=O)[C@H](Cc1ccc(O)cc1)NC(=O)[C@H](CO)NC(=O)[C@H](CO)NC(=O)[C@@H](NC(=O)[C@H](CC(=O)O)NC(=O)[C@H](CO)NC(=O)[C@@H](NC(=O)[C@H](Cc1ccccc1)NC(=O)[C@@H](NC(=O)CNC(=O)[C@H](CCC(=O)O)NC(=O)[C@H](C)NC(=O)[C@@H](N)Cc1cnc[nH]1)[C@@H](C)O)[C@@H](C)O)C(C)C)C(=O)N[C@@H](CCC(=O)O)C(=O)N[C@@H](Cc1ccccc1)C(=O)N[C@H](C(=O)N[C@@H](C)C(=O)N[C@@H](Cc1c[nH]c2ccccc12)C(=O)N[C@@H](CC(C)C)C(=O)N[C@H](C(=O)N[C@@H](CCCNC(=N)N)C(=O)NCC(=O)N[C@@H](CCCNC(=N)N)C(=O)NCC(=O)O)C(C)C)[C@@H](C)CC)C(=O)O [Liraglutide, reference compound]
decrease in body weight [1]: ~12% | blood glucose levels on Day 7 [2]: total decrease in blood glucose levels

CCCC[C@H](NC(=O)[C@H](CO)NC(=O)[C@@H](N)Cc1c[nH]cn1)C(=O)NCC(=O)N[C@H](C(=O)N[C@@H](Cc1ccccc1)C(=O)N[C@H](C(=O)N[C@@H](CO)C(=O)N[C@@H](CC(=O)O)C(=O)N[C@@H](Cc1ccc(O)cc1)C(=O)N[C@@H](CO)C(=O)N[C@@H](CCCCN)C(=O)N[C@@H](Cc1ccc(O)cc1)C(=O)N[C@@H](CC(C)C)C(=O)N[C@@H](CC(=O)O)C(=O)N[C@@H](CCC(=O)O)C(=O)N[C@@H](CCCNC(=N)N)C(=O)N[C@@H](CCCNC(=N)N)C(=O)N[C@@H](C)C(=O)N[C@@H](CCC(N)=O)C(=O)N[C@@H](CC(=O)O)C(=O)N[C@@H](Cc1ccccc1)C(=O)N[C@H](C(=O)N[C@@H](CCC(N)=O)C(=O)N[C@@H](Cc1c[nH]c2ccccc12)C(=O)N[C@@H](CC(C)C)C(=O)N[C@@H](CCSC)C(=O)N[C@@H](CC(N)=O)C(=O)N[C@H](C(N)=O)[C@@H](C)O)C(C)C)[C@@H](C)O)[C@@H](C)O [NLeu3, E16 Gluc-NH2]
Percent Potency Relative to Native Ligand GLP-1Rec (GLP-1 receptor; Table 4): 20.6%

CSCC[C@H](NC(=O)[C@H](CC(C)C)NC(=O)[C@H](Cc1c[nH]c2ccccc12)NC(=O)[C@H](CCC(N)=O)NC(=O)[C@@H](NC(=O)[C@H](Cc1ccccc1)NC(=O)[C@H](CC(=O)O)NC(=O)[C@H](CCC(N)=O)NC(=O)[C@H](C)NC(=O)[C@H](CCCNC(=N)N)NC(=O)[C@H](CCCNC(=N)N)NC(=O)[C@H](CCC(=O)O)NC(=O)[C@H](CC(=O)O)NC(=O)[C@H](CC(C)C)NC(=O)[C@H](Cc1ccc(O)cc1)NC(=O)[C@H](CCCCN)NC(=O)[C@H](CO)NC(=O)[C@H](Cc1ccc(O)cc1)NC(=O)[C@H](CC(=O)O)NC(=O)[C@H](CO)NC(=O)[C@@H](NC(=O)[C@H](Cc1ccccc1)NC(=O)[C@@H](NC(=O)CNC(=O)[C@H](CCCN)NC(=O)[C@H](CO)NC(=O)[C@@H](N)Cc1c[nH]cn1)[C@@H](C)O)[C@@H](C)O)C(C)C)C(=O)N[C@@H](CC(N)=O)C(=O)N[C@H](C(N)=O)[C@@H](C)O [Orn3, E16 Gluc-NH2]
Percent Potency Relative to Native Ligand GLP-1Rec (GLP-1 receptor; Table 4): 0.1%

CC[C@H](C)[C@H](NC(=O)[C@H](Cc1ccccc1)NC(=O)[C@H](CCC(=O)O)NC(=O)[C@@H]1CCCCNC(=O)CC[C@H](NC(=O)[C@H](CC(=O)O)NC(=O)[C@H](CC(C)C)NC(=O)[C@H](Cc2ccc(O)cc2)NC(=O)[C@H](CCCCN)NC(=O)[C@H](CO)NC(=O)[C@H](Cc2ccc(O)cc2)NC(=O)[C@H](CC(=O)O)NC(=O)[C@H](CO)NC(=O)[C@@H](NC(=O)[C@H](Cc2ccccc2)NC(=O)[C@@H](NC(=O)CNC(=O)[C@H](CCC(N)=O)NC(=O)C(C)(C)NC(=O)[C@@H](N)Cc2c[nH]cn2)[C@@H](C)O)[C@@H](C)O)C(=O)N[C@@H](CCC(N)=O)C(=O)N[C@@H](C)C(=O)N[C@@H](C)C(=O)N1)C(=O)N[C@@H](CS)C(=O)N[C@@H](Cc1c[nH]c2ccccc12)C(=O)N[C@@H](CC(C)C)C(=O)N[C@@H](CCSC)C(=O)N[C@@H](CC(N)=O)C(=O)N[C@H](C(N)=O)[C@@H](C)O [Peptide Y]
Percent Helicity 0% TFE ([3]; 10 mM phosphate buffer pH 5.9, 0% TFE): 36% | Percent Helicity 10% TFE ([3]; 10 mM phosphate buffer pH 5.9, 10% TFE): 35% | Percent Helicity 20% TFE ([3]; 10 mM phosphate buffer pH 5.9, 20% TFE): 64%

CCCC[C@H](NC(=O)[C@H](CC(C)C)NC(=O)[C@H](Cc1c[nH]c2ccccc12)NC(=O)[C@H](C)NC(=O)[C@@H](NC(=O)[C@H](Cc1ccccc1)NC(=O)[C@H](CCC(=O)O)NC(=O)[C@H](C)NC(=O)[C@H](C)NC(=O)[C@H](CCCNC(=N)N)NC(=O)[C@H](CCCNC(=N)N)NC(=O)[C@@H](NC(=O)[C@H](CC(=O)O)NC(=O)[C@H](CC(C)C)NC(=O)[C@H](Cc1ccc(O)cc1)NC(=O)[C@H](CCCCN)NC(=O)[C@H](CO)NC(=O)[C@H](Cc1ccc(O)cc1)NC(=O)[C@H](CC(=O)O)NC(=O)[C@H](CO)NC(=O)[C@@H](NC(=O)[C@H](Cc1ccccc1)NC(=O)[C@@H](NC(=O)CNC(=O)[C@H](CCC(=O)NC)NC(=O)[C@H](CO)NC(=O)[C@@H](N)Cc1c[nH]cn1)[C@@H](C)O)[C@@H](C)O)[C@@H](C)O)C(C)C)C(=O)N[C@@H](CC(=O)O)C(=O)N[C@@H](CCC(=O)O)C(=O)O [SEQ ID NO: 597]
% activity (glucagon receptor): 13%

CNC(=O)CC[C@H](NC(=O)[C@H](CO)NC(=O)[C@@H](N)Cc1c[nH]cn1)C(=O)NCC(=O)N[C@H](C(=O)N[C@@H](Cc1ccccc1)C(=O)N[C@H](C(=O)N[C@@H](CO)C(=O)N[C@@H](CC(=O)O)C(=O)N[C@@H](Cc1ccc(O)cc1)C(=O)N[C@@H](CO)C(=O)N[C@@H](CCCCN)C(=O)N[C@@H](Cc1ccc(O)cc1)C(=O)N[C@@H](CC(C)C)C(=O)N[C@@H](CC(=O)O)C(=O)NC(C)(C)C(=O)N[C@@H](CCCNC(=N)N)C(=O)N[C@@H](CCCNC(=N)N)C(=O)N[C@@H](C)C(=O)N[C@@H](C)C(=O)N[C@@H](CC(=O)O)C(=O)N[C@@H](Cc1ccccc1)C(=O)N[C@H](C(=O)N[C@@H](C)C(=O)N[C@@H](Cc1c[nH]c2ccccc12)C(=O)N[C@@H](CC(C)C)C(=O)N[C@@H](CCSC)C(=O)N[C@@H](CC(=O)O)C(=O)N[C@@H](CCC(=O)O)C(=O)O)C(C)C)[C@@H](C)O)[C@@H](C)O [SEQ ID NO: 602]
% activity (glucagon receptor): 55%

HSEGTFTSDYSKYLDERRAQDFVQWLMNT-NH2 [E3, E16 Gluc-NH2]
Percent Potency Relative to Native Ligand GRec (glucagon receptor; Table 4): 1.6% | Percent Potency Relative to Native Ligand GLP-1Rec (GLP-1 receptor; Table 4): 28.8%
